Test results from PubChem BioAssay AID1159614 (National Center for Advancing Translational Sciences (NCATS), 2016).
Out of some 45,000 compounds screened, about 65 (0.1%) were called active. The call rests on the fitted dose curve; in most records, active means well fitted activation curve with a large enough effect; inconclusive means small, poorly fitted or top-dose-only effect; inactive means no such curve, though single readings can be large or run the other way. The list shows a part of the results.

Molecular target: Galactocerebrosidase (Homo sapiens) (UniProt P54803)
UniProt P54803, sequence (P54803 whole entry, looked up): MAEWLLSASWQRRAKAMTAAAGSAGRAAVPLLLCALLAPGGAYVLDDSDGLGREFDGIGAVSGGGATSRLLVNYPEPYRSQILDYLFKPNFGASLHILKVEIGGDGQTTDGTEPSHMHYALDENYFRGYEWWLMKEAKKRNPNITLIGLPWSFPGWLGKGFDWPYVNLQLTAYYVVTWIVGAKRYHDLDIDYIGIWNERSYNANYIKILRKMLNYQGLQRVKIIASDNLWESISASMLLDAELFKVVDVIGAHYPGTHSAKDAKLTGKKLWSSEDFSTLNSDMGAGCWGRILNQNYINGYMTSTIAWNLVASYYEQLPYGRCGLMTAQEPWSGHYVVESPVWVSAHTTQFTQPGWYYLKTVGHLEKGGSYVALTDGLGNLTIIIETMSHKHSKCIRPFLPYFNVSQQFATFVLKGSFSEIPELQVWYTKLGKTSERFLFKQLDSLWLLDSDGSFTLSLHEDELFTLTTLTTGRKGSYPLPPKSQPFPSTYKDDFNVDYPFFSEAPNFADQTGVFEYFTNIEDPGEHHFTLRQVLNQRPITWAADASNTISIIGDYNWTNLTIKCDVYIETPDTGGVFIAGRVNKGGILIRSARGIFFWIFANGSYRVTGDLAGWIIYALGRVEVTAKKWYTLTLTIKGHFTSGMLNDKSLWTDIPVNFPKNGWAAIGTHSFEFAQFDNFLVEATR
Assay: A Novel Cell-Based Assay to Identify Small Molecules for B -Galactocerebrosidase; further: 0% is about no effect; nearly all actives have a fitted effect of over 65% in size
Conditions: 145M-Twi-hGALC-G270D cells, HMU-beta-Gal fluorescence, 48 h; series mostly up to 57.5 µM; activation: at the top concentration
In short: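 qHTS, 1536-well; 145M-Twi-hGALC-G270D cells (WT line also made) in DMEM/F12 + 10% FBS; compound incubation on live cells; HMU-β-gal 0.1 mM final, pH 5.2, NaTC; carbonate stop; fluorescence increase = enhanced residual activity.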

activation, inactive:
COc1cccc(-c2nc(S(=O)(=O)c3ccccc3)c(N3CCCCC3)o2)c1 -13%
CCC(C)NC(=O)CSc1nc2cc3c(cc2c(=O)n1CCCC(=O)NCCc1ccc(OC)c(OC)c1)OCO3 (configuration not stated) -4.91%
COCCNC(=O)c1ccc2c(=O)n(CCc3ccccc3)c(SCC(=O)CC(=O)OC)nc2c1 -12.7%
COc1cc2c(=O)c(C(=O)c3ccc(C)c(C)c3)cn(Cc3ccccc3F)c2cc1OC -10.3%
CCc1ccc(CNC(=O)c2c3c(nc4ccccc24)C(=O)N(C2CCCCC2)C3)cc1 -15.6%
CCCn1c(=O)c2sccc2n2c(CCCC(=O)N3CCN(c4ccccc4OC)CC3)nnc12 -12.7%
CCOC(=O)c1c(C)[nH]c(C)c1S(=O)(=O)N(C)CC(=O)Nc1cc(Cl)ccc1C -9.71%
CC1=C(C(=O)OCc2ccc(C)cc2)C(c2ccccc2F)CC(=O)N1 (configuration not stated) -1.75%
Cc1ccc2c(=O)cc(C(=O)Nc3sc4c(c3C(=O)NCc3ccco3)CCC4)oc2c1 -15.4%
COc1ccc2c(c1)c(=O)c(C(=O)c1ccccc1)cn2CC(=O)Nc1ccc2c(c1)OCCO2 1.54%
COc1ccccc1NC(=O)CSc1nnc(-c2ccccc2C)o1 -19.6%
O=C(NCc1ccccc1F)C1CCN(c2nnc(-n3cccc3)s2)CC1 -19.2%
COc1cc(NC(=O)CCc2c(C)nn(-c3ccc(N4CCOCC4)nn3)c2C)cc(OC)c1OC -4.98%
COc1cccc(N2CCN(c3c4c(nc5nncn35)CCC4)CC2)c1 -8.18%
CCC1CCCCN1S(=O)(=O)c1ccc(NC(=O)c2cc(=O)c3c(C)cc(C)cc3o2)cc1 (configuration not stated) -4.34%
Cc1cccc(Cn2cc3c(=O)n(CC(=O)Nc4c(C)cccc4C)nc-3c3cc(F)ccc32)c1 -4.36%
Cc1c(Cl)cccc1NC(=O)CCCn1nc(C)c2sc3ccccc3c2c1=O -8.63%
COCCCNC(=O)NC(CCC(C)C)c1c(-n2cccc2)sc2c1CCN(C)C2 (configuration not stated) -17.5%
O=C(NCCN1CCN(c2ccccc2)CC1)Nc1cccc(Br)c1 -31.4%
CC1(C)CC(=O)c2cc(-c3nc(-c4ccccc4)cs3)c(=O)[nH]c2C1 -11.3%
Cc1ccc(NC(=O)C2CCN(S(=O)(=O)c3c(C)noc3C)CC2)cc1 -16.7%
CC(C)Sc1nc2sc3c(c2c(=O)n1Cc1ccccc1)CCCC3 -20.3%
CCOc1ccc(CCNC(=O)CCc2c(C)nc3c(c(C)nn3-c3ccc(C)c(C)c3)c2C)cc1 -12%
COc1ccc(Nc2nc(-c3cccc(Cl)c3)c3c(n2)-c2ccccc2OC3)cc1 -8.71%
CCOc1ccccc1CNC(=O)Cc1ccc(NC(=O)N2CCCCc3ccccc32)cc1 -17%
CCOc1ccc(NC(=O)CSc2nc3ccsc3c(=O)n2C(C)CC)cc1 (configuration not stated) -10.4%
CCOc1cccc(Nc2nn(-c3ccc(OC(F)(F)F)cc3)nc2C(C)=O)c1 -12.5%
CCOC(=O)c1cnc2c(C)c(Cl)ccc2c1NCCc1ccc(OC)c(OC)c1 -5.63%
COc1ccc(-c2noc(N3CCC(C(=O)N4CCN(c5ccccc5OC)CC4)CC3)n2)cc1 -12.8%
Cc1cccc2c1-c1sc(C(=O)N3CCN(c4ccccc4)CC3)cc1CO2 -13.8%
CCCCNS(=O)(=O)c1ccc2nc(-c3cccnc3)cc(C(=O)NCCCOC(C)C)c2c1 -3.6%
Cc1cccc(NC(=O)Nc2ccc(F)cc2)n1 -7.34%
CCCCN(C)CCNC(=O)c1ccc(Cn2c(=O)[nH]c3cc(OC)c(OC)cc3c2=O)cc1 -15%
COc1ccccc1CNC(=O)c1cccc(N2CCCS2(=O)=O)c1 2.1%
Cc1ccc(N(CC(=O)NCCc2ccccc2C)S(=O)(=O)N(C)C)cc1 -14.4%
COc1ccccc1CNC(=O)Cn1c(=O)oc2cc(S(=O)(=O)N3CCCC3)ccc21 -15.9%
CCOC(=O)c1ccc(NC(=O)C2CC(=O)NC(=Nc3ccc(C)c(C)c3)S2)cc1 (configuration not stated) -24.5%
CCc1nc2nc(C)cc(Nc3cc(Cl)ccc3C)n2n1 -13.9%
CCc1ccc(CNC(=O)c2ccc3c(Cl)c4c(nc3c2)CCCC4)cc1 -46.3%
COc1ccc(Br)cc1C(=O)Nc1cccc2ccc(C)nc12 -28.9%
COc1ccc(-c2noc(N(c3ccc(F)c(Cl)c3)c3nc(-c4ccc(OC)c(OC)c4)no3)n2)cc1OC 0.994%
COc1cc(-c2nc(S(=O)(=O)c3ccc(Br)cc3)c(N3CCOCC3)o2)cc(OC)c1OC -0.0144%
CC(=O)Nc1ccc(NC(=O)C2CCCN(S(=O)(=O)c3ccc4c(c3)CCCC(=O)N4)C2)cc1 (configuration not stated) -2.39%
CCOC(=O)c1cnn(-c2ccc(C(=O)Nc3ccc(OC(F)(F)F)cc3)cc2)c1N -5.49%
Cc1cc(N2CCN(c3cccc(C)c3C)CC2)n2cnnc2n1 -19.4%
CCN(CC)CCSc1nnc2c3cc(F)ccc3n(CC)c2n1 3.25%
COc1cccc(C(=O)n2nc(-c3cccnc3)nc2NCc2ccc(F)cc2)c1 -12.6%
COC(=O)c1ccc2c(=O)n(CCCCCC(=O)N3CCN(c4ccc(Cl)cc4)CC3)c(=O)[nH]c2c1 -14.4%
Cc1ccc(CCNC(=O)CCn2nc(-c3ccc(C)cc3)ccc2=O)cc1 -12.7%
Cc1c(Cl)cccc1NC(=O)Nc1ccc2snnc2c1 -11.2%
Oc1c(C(c2ccccc2F)N2CCCC2)sc2nc(-c3ccco3)nn12 (configuration not stated) 3.13%
O=C(NCCc1ccccc1)c1ccc(CS(=O)(=O)c2ccc(Cl)cc2)o1 -16%
CNCCC(Oc1ccccc1OC)c1ccccc1 (configuration not stated) -4.02%
COc1ccccc1CNC(=O)Cn1c(=O)nc(-c2ccccc2)c2ccccc21 -6.24%
CCCSc1nnc2c(n1)OC(c1cccs1)Nc1ccc(Br)cc1-2 (configuration not stated) -14.2%
Cc1cccc(S(=O)(=O)c2cn(C)c3cc(N4CCC(C)CC4)c(F)cc3c2=O)c1 -8.65%
CC(=O)Nc1ccc(NC(=O)c2cc(-c3ccc4c(c3)OCCO4)on2)cc1 13%
CCC(=O)N1c2ccc(S(=O)(=O)CCC(=O)NCc3cccc(OC)c3)cc2CC1C (configuration not stated) -1.56%
CCCOc1ccccc1C1C(C(=O)Nc2ccccc2)=C(C)Nc2nnnn21 (configuration not stated) -16.4%
CCCC1=Nc2cc(C(=O)NCCOC)ccc2Sc2ccccc21 -21.6%
CCc1ccc(N(CC)C(=O)Cn2cnc3sc(C)c(S(=O)(=O)N4CCN(c5ncccn5)CC4)c3c2=O)cc1 -7.5%
Cc1ccc2onc(CC(=O)N3CCN(c4ccccc4)CC3)c2c1 -9.48%
